{
  "source": "paper PMC4336329",
  "about": "(PLoS ONE, 2015)",
  "note": "The campaign covered roughly 310,000 compounds. About 14,000 (4.5%) showed an effect of 50% or more. The effect is printed as a negative number. The list shows a part of the results.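 Further: peak tail current of the secondary pulse compared with the same well before compound.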",
  "data": [
    {"biological_target": "human ether-à-go-go-related gene (hERG) potassium channel (human, UniProt Q12809)", "sequence (Q12809 whole entry, looked up)": "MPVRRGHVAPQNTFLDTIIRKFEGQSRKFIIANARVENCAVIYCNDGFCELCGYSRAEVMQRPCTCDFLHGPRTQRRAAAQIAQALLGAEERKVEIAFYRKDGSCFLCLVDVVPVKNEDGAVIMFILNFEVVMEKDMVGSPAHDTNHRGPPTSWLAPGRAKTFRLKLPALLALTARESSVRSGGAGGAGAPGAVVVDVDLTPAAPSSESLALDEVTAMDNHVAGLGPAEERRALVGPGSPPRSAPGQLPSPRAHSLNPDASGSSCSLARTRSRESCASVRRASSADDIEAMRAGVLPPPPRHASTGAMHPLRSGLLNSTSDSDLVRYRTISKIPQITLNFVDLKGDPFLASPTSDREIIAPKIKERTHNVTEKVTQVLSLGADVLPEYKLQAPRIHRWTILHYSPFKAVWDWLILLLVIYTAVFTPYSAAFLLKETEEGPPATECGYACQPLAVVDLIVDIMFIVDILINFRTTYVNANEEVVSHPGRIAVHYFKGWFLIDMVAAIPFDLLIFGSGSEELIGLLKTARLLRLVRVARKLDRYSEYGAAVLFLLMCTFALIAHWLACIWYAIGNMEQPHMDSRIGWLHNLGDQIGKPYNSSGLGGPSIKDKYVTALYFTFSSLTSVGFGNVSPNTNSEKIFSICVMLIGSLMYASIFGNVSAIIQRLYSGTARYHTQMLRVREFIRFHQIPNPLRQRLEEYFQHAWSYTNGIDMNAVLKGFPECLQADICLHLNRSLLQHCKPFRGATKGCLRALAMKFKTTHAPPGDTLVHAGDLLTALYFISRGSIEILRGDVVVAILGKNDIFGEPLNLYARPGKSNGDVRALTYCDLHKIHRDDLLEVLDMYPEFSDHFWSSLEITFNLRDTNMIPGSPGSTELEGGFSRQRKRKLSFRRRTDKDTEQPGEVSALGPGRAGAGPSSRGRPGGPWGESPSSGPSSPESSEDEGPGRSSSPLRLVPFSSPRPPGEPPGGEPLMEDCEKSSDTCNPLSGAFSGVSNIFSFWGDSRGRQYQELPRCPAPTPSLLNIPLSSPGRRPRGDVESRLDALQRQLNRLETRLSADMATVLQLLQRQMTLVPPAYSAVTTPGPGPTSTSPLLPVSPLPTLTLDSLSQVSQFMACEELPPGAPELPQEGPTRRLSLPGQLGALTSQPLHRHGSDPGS", "assay": "primary screen, population patch clamp on CHO cells stably expressing hERG", "units": {"hERG current change (%, negative = inhibition) at 10uM": "%"}, "values": [
      {"smiles": "Cc1cc(NCc2ccc3c(c2)OCO3)n2nc(C)nc2n1", "hERG current change (%, negative = inhibition) at 10uM": -14.6},
      {"smiles": "COc1ccc(C)cc1S(=O)(=O)N1CCN(C(=O)c2ncoc2-c2ccc(F)cc2)CC1", "hERG current change (%, negative = inhibition) at 10uM": 23.5},
      {"smiles": "CC(=O)N1c2ccc(S(=O)(=O)NCCC(=O)Nc3ccc(F)cc3C)cc2CC1C", "note": "(stereo not shown)", "hERG current change (%, negative = inhibition) at 10uM": 0.977},
      {"smiles": "CCCOc1ccc(NC(=O)CC2C(=O)N(C)C(=S)N2Cc2ccc3c(c2)OCO3)cc1", "note": "(stereo not shown)", "hERG current change (%, negative = inhibition) at 10uM": 2.31},
      {"smiles": "COC(=O)C1=C(N)Oc2cc(C)n(CC3CCCO3)c(=O)c2C1c1ccccc1", "note": "(stereo not shown)", "hERG current change (%, negative = inhibition) at 10uM": 11.3},
      {"smiles": "N#Cc1cc2cc3c(cc2nc1NCCNC(=S)NCCCN1CCOCC1)OCO3", "hERG current change (%, negative = inhibition) at 10uM": 14.2},
      {"smiles": "Cc1cc(Nc2ccccc2)n(-c2ccc(Br)cc2)n1", "hERG current change (%, negative = inhibition) at 10uM": 2.41},
      {"smiles": "O=c1cc(N2CCCCC2)c(-c2ccccc2)nn1Cc1ccccc1", "hERG current change (%, negative = inhibition) at 10uM": -18.6},
      {"smiles": "O=C(c1ccccc1)c1ccc(Oc2ncccn2)cc1", "hERG current change (%, negative = inhibition) at 10uM": 13},
      {"smiles": "COc1ccc(OCC(O)CNC(=O)c2ccc(Br)cc2)cc1", "note": "(stereo not shown)", "hERG current change (%, negative = inhibition) at 10uM": -7.75},
      {"smiles": "C[C@H](NC(=O)c1ccco1)C(=O)N1CCCC1", "hERG current change (%, negative = inhibition) at 10uM": 21.7},
      {"smiles": "CCOc1ccc(C(=O)Nc2nnc(C3=COCCO3)o2)cc1", "hERG current change (%, negative = inhibition) at 10uM": 15.9},
      {"smiles": "CCCCC1(Cc2ccc(OC)c([N+](=O)[O-])c2)C(=O)N(c2ccccc2)N(c2ccccc2)C1=O", "hERG current change (%, negative = inhibition) at 10uM": 1.71},
      {"smiles": "CC(C)NC(=O)C1(c2ccccc2)CC1(Cl)Cl", "note": "(stereo not shown)", "hERG current change (%, negative = inhibition) at 10uM": 14.5},
      {"smiles": "Cc1nn(C)c(Cl)c1CN1CCCC(C(=O)Nc2cccc(-n3cccn3)c2)C1", "note": "(stereo not shown)", "hERG current change (%, negative = inhibition) at 10uM": -50.2},
      {"smiles": "CCOc1cc(/C=N/NC(=O)CSc2nncn2C)ccc1OCc1cccc(C)c1", "hERG current change (%, negative = inhibition) at 10uM": -15.5},
      {"smiles": "Cn1cc(C(=O)c2cccc(Cl)c2)cc1C#N", "hERG current change (%, negative = inhibition) at 10uM": 12.4},
      {"smiles": "CC(=O)N1CCN(c2ccccc2NC(=O)c2ccc(-c3cccc([N+](=O)[O-])c3)o2)CC1", "hERG current change (%, negative = inhibition) at 10uM": -75.4},
      {"smiles": "Cc1cccc(CCN2C(N(C)C)=NC[C@@H]2C)c1", "hERG current change (%, negative = inhibition) at 10uM": -7.74},
      {"smiles": "Cc1ccc(C(=O)Oc2ccccc2N2CCOCC2)cc1", "hERG current change (%, negative = inhibition) at 10uM": 12.2},
      {"smiles": "CC1=C(C(=O)OCC2CCCO2)C(c2coc3ccccc3c2=O)C2=C(CCCC2=O)N1", "note": "(stereo not shown)", "hERG current change (%, negative = inhibition) at 10uM": -6.3},
      {"smiles": "O=S(=O)(c1ccccc1)N1CC1c1ccccc1", "note": "(stereo not shown)", "hERG current change (%, negative = inhibition) at 10uM": 1.43},
      {"smiles": "CCC(OC(=O)c1nsc(Cl)c1Cl)C(=O)NCc1cccs1", "note": "(stereo not shown)", "hERG current change (%, negative = inhibition) at 10uM": -14.6},
      {"smiles": "COc1ccc(OC)c2[nH]c(=O)c(CCNC(=O)C(C)C)cc12", "hERG current change (%, negative = inhibition) at 10uM": 26.5},
      {"smiles": "O=C(N/C(=C/c1cccnc1)C(=O)N1CCOCC1)c1ccccc1Br", "hERG current change (%, negative = inhibition) at 10uM": 20.9},
      {"smiles": "CCN(CC)c1ccc(S(=O)(=O)N2CCOCC2)cc1NC(=O)CN1CCN(Cc2ccccc2)CC1.Cl", "hERG current change (%, negative = inhibition) at 10uM": -45.7},
      {"smiles": "COc1cc(/C=N/NC(=O)c2ccncc2)ccc1OCCN1CCCCC1", "hERG current change (%, negative = inhibition) at 10uM": -3.37},
      {"smiles": "COC(=O)c1ccccc1NC(=O)c1ccc(COc2ccccc2)o1", "hERG current change (%, negative = inhibition) at 10uM": 4.19},
      {"smiles": "CN(Cc1ccccc1)C(=O)c1ccc(NC(=O)C2=CSCCO2)cc1", "hERG current change (%, negative = inhibition) at 10uM": -0.926},
      {"smiles": "Cl.Nc1nc(Nc2ccc(Cl)cc2)nc2ccccc12", "hERG current change (%, negative = inhibition) at 10uM": -2.78},
      {"smiles": "CC1CCN(S(=O)(=O)c2cn(CC(=O)N3CCN(c4cccc(C(F)(F)F)c4)CC3)cn2)CC1", "hERG current change (%, negative = inhibition) at 10uM": -54},
      {"smiles": "CC(=O)Nc1ccc(NC(=O)C/C(C)=N/NC(=O)COc2cc(C)c(Br)cc2Br)cc1", "hERG current change (%, negative = inhibition) at 10uM": 0.722},
      {"smiles": "COCCNC(=S)N/N=C1\\CC(C)CC(C)(C)C1", "note": "(stereo not shown)", "hERG current change (%, negative = inhibition) at 10uM": 6.32},
      {"smiles": "COc1ccc(C(=O)NCCCN(C)CCCNC(=O)c2ccc(OC)cc2)cc1", "hERG current change (%, negative = inhibition) at 10uM": -30.5},
      {"smiles": "CN(C(=O)COC(=O)c1cn(-c2ccccc2)nc1-c1ccccc1)C1CCS(=O)(=O)C1", "note": "(stereo not shown)", "hERG current change (%, negative = inhibition) at 10uM": -16.6},
      {"smiles": "CCN1C(=O)[C@H]2[C@@H](c3ccc(C)cc3)N3C(=O)N(c4ccc(C(F)(F)F)cc4)C(=O)[C@@]3(Cc3ccccc3)[C@H]2C1=O", "hERG current change (%, negative = inhibition) at 10uM": 16.3},
      {"smiles": "NNCCc1ccccc1.O=S(=O)(O)O", "hERG current change (%, negative = inhibition) at 10uM": 6.44},
      {"smiles": "Cc1ccc(-n2c(=O)c3ccccc3n(CC(=O)NCc3ccco3)c2=O)cc1", "hERG current change (%, negative = inhibition) at 10uM": 6.23},
      {"smiles": "COc1ccccc1C(=O)NC(C)C(c1cccs1)N1CCOCC1", "note": "(stereo not shown)", "hERG current change (%, negative = inhibition) at 10uM": 5.67},
      {"smiles": "CCOc1ccccc1NC(=O)c1ccc2nc[nH]c2c1", "hERG current change (%, negative = inhibition) at 10uM": 19.9},
      {"smiles": "CCC1Oc2nc(SC)nnc2-c2ccccc2N1C(=O)c1ccccc1", "note": "(stereo not shown)", "hERG current change (%, negative = inhibition) at 10uM": -4.97},
      {"smiles": "CN1C(=O)/C(=N/OC(=O)c2ccccc2Br)c2ccccc21", "hERG current change (%, negative = inhibition) at 10uM": 12.3},
      {"smiles": "O=C(COc1ccccc1)N1CCCC1", "hERG current change (%, negative = inhibition) at 10uM": 15.6},
      {"smiles": "CCOC(=O)c1ccc(NC(=O)CN2CCN(Cc3ccccc3)CC2)cc1", "hERG current change (%, negative = inhibition) at 10uM": -51},
      {"smiles": "COc1ccc(/C=C(\\C#N)C(=O)OCC(=O)Nc2c(C)cccc2C(C)C)cc1", "hERG current change (%, negative = inhibition) at 10uM": 16},
      {"smiles": "COc1c(Cl)cc(Cl)cc1/C=N/NC(=O)c1nnn(-c2nonc2N)c1CN1CCC(C)CC1", "hERG current change (%, negative = inhibition) at 10uM": 13.1},
      {"smiles": "CC(=O)Nc1ccc(S(=O)(=O)Nc2cccc3[nH]ncc23)cc1", "hERG current change (%, negative = inhibition) at 10uM": 33.1},
      {"smiles": "C=CCn1c(N)cc(=O)nc1SCC(=O)Nc1ccccc1", "hERG current change (%, negative = inhibition) at 10uM": 13.4},
      {"smiles": "O=C1/C(=C/c2ccc(Br)cc2)Oc2cc(O)ccc21", "hERG current change (%, negative = inhibition) at 10uM": 13.5},
      {"smiles": "COC(=O)c1c(NC(=O)CCl)sc(C(=O)N2CCOCC2)c1C", "hERG current change (%, negative = inhibition) at 10uM": 6.78},
      {"smiles": "CCN(CC)c1ccc(C2CC(=O)NC3=C2C(=O)CC(C)(C)C3)cc1", "note": "(stereo not shown)", "hERG current change (%, negative = inhibition) at 10uM": 4.79},
      {"smiles": "COc1ccc(COc2cc(-c3cccc(OC)c3)nc3ccc(NC(=O)C(C)C)cc23)cc1", "hERG current change (%, negative = inhibition) at 10uM": 3.04},
      {"smiles": "CCN(CC)c1ccc(C=C2C(=O)OC3(CCCC3)OC2=O)cc1", "hERG current change (%, negative = inhibition) at 10uM": -9.52},
      {"smiles": "Cc1c(Cl)cccc1NC(=O)C1C2C=CC(C2)C1C(=O)O", "note": "(stereo not shown)", "hERG current change (%, negative = inhibition) at 10uM": 10.2},
      {"smiles": "CSc1ccc(C(=O)C2CCCN(C(=O)c3cccnc3SC)C2)cc1", "note": "(stereo not shown)", "hERG current change (%, negative = inhibition) at 10uM": -32.4}
    ]}
  ]
}
